Test results: PubChem BioAssay AID1347073 (National Center for Advancing Translational Sciences (NCATS), 2019)
The campaign covered roughly 45,000 compounds. About 200 (0.44%) were called active. Roughly 7% stayed inconclusive and do not appear here. Calls follow the shape of the dose curve; as a rule, active = well fitted activation curve with a large enough effect; inconclusive = small, poorly fitted or top-dose-only effect; inactive = no such curve, though single readings can be large or run the other way. The list shows a part of the results.

Assay: qHTS of TDP-43 Inhibitors: NCGC Sytravon Library Screen; also: 0% is about no effect; nearly all actives have a fitted effect of over 55% in size
Details: yeast TDP-43 toxicity rescue, BacTiter-Glo growth, 24 h; series mostly up to 46.1 µM; growth rescue (activation): at the top concentration
In short: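 TDP-43-expressing yeast, pregrown in raffinose, seeded at OD600 0.02 in galactose medium with compound for 24 hr at 30 deg C. Growth read by BacTiter-Glo luminescence, so rescue of toxicity appears as activation.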

Question: Which “growth rescue (activation)” value does the source give for `OC(c1ccccc1)(c1nc(-c2cc(F)cc(F)c2)cs1)C(F)(F)F` (configuration not stated) here?
Answer: Its value is inactive: -92.7%.

Question: With `COc1ccc(CNC(=O)CN2CCC(NC(=O)c3cccc(OC)c3)CC2)cc1` as the molecule, how does the “growth rescue (activation)” value read?
Answer: Its value is inactive: 4.03%.

Question: Which “growth rescue (activation)” value does the source give for `O=C(COC(=O)/C=C/c1ccccc1)NNC(=O)c1ccccc1F` here?
Answer: Its value is inactive: 10.7%.

Question: Which “growth rescue (activation)” value does the source give for `CCNC(=S)N1CCN(S(=O)(=O)c2ccc(Cl)s2)CC1` here?
Answer: The value was inactive: -7.32%.

Question: With `O=c1cc(CN2CCN(S(=O)(=O)c3cccc(Cl)c3)CC2)c2ccc(O)cc2o1` as the molecule, how does the “growth rescue (activation)” value read?
Answer: The value was inactive: -9.13%.

Question: With `COc1ccc(OC)c(NC(=O)CSC2=C(C#N)C(c3ccco3)C3=C(CCCC3=O)N2)c1` (configuration not stated) as the molecule, how does the “growth rescue (activation)” value read?
Answer: The value was inactive: 24.8%.

Question: For `O=C(c1cccnc1Nc1ccccc1F)N1CCOCC1`, which “growth rescue (activation)” value is on record?
Answer: Its value is inactive: -10.1%.

Question: For `CCOC(=O)c1ccccc1NC(=O)NC(C)c1c(-n2cccc2)sc(C)c1C` (configuration not stated), which “growth rescue (activation)” value is on record?
Answer: The value was inactive: 15.7%.

Question: Which “growth rescue (activation)” value does the source give for `CC(Sc1ncnc2sccc12)C(=O)Nc1ccc(S(N)(=O)=O)cc1` (configuration not stated) here?
Answer: The value was inactive: 6.94%.

Question: Which “growth rescue (activation)” value does the source give for `Cc1cc(CN(C)C(=O)CCc2nnc(Cc3cccc(C(F)(F)F)c3)o2)on1` here?
Answer: Its value is inactive: 8.43%.

Question: For `O=C(Nc1ccc(Cl)c(Cl)c1)C1C2C=CC3(O2)C1C(=O)N(CCN1CCCCC1)C3C(=O)NC1CCCCC1` (configuration not stated), which “growth rescue (activation)” value is on record?
Answer: Its value is inactive: -1.04%.

Question: With `CC1CCCN(C(=O)/C(=C/c2ccco2)NC(=O)c2ccccc2)C1` (configuration not stated) as the molecule, how does the “growth rescue (activation)” value read?
Answer: The value was inactive: -9.61%.

Question: For `CCN1/C(=C/c2cc[n+](C)cc2)C=Cc2cc(C)ccc21`, which “growth rescue (activation)” value is on record?
Answer: Its value is inactive: 4.68%.

Question: With `C=CCn1c(C)cc(C(=O)COC(=O)/C=C/c2ccc(OC)cc2)c1C` as the molecule, how does the “growth rescue (activation)” value read?
Answer: Its value is inactive: 11%.

Question: For `CCn1ccnc1CNC(=O)CC1C(=O)NCCN1CC(c1ccccc1)c1ccccc1` (configuration not stated), which “growth rescue (activation)” value is on record?
Answer: The value was inactive: 3.55%.

Question: Which “growth rescue (activation)” value does the source give for `CC(C)NC(=O)C1CCN(C2CCN(Cc3cn[nH]c3-c3ccccc3)CC2)CC1` here?
Answer: The value was inactive: 8.31%.

Question: For `O=C(NCc1cccnc1)c1cc(Sc2ccc(F)cc2F)nc2ccccc12`, which “growth rescue (activation)” value is on record?
Answer: The value was inactive: 1.65%.

Question: With `CC(C)Cn1c(SCC(=O)Nc2ccc(Cl)cc2F)nc(O)cc1=O` as the molecule, how does the “growth rescue (activation)” value read?
Answer: Its value is inactive: -6.57%.

Question: For `COc1ccc(C(=O)N(Cc2ccc(N(C)C)cc2)Cc2ccco2)cc1Cl`, which “growth rescue (activation)” value is on record?
Answer: The value was inactive: -4.57%.

Question: With `O=C(NC(=S)NCCc1ccccn1)c1ccco1` as the molecule, how does the “growth rescue (activation)” value read?
Answer: The value was inactive: -22.2%.

Question: Which “growth rescue (activation)” value does the source give for `CC1(C(=O)NS(=O)(=O)c2cccc(C#N)c2)CCN1C(=O)C1(c2ccc(Cl)cc2)CCC1` (configuration not stated) here?
Answer: Its value is inactive: 13.9%.

Question: With `CCOC(CNC(=O)c1ccc2c(c1)ncn2-c1ccccc1OC)OCC` as the molecule, how does the “growth rescue (activation)” value read?
Answer: Its value is inactive: 5.81%.

Question: Which “growth rescue (activation)” value does the source give for `COc1ccc(N(C(=O)c2snc(C(N)=O)c2N)C(C(=O)NCc2ccc(F)cc2)c2ccc(C)o2)c(OC)c1` (configuration not stated) here?
Answer: The value was inactive: 6.94%.

Question: Which “growth rescue (activation)” value does the source give for `Cc1cccc(Nc2ccc(C(=O)N3CCOCC3)cn2)c1` here?
Answer: Its value is inactive: 11.5%.

Question: For `COCCn1c(SCc2ccccc2)nc2c1c(=O)[nH]c(=O)n2C`, which “growth rescue (activation)” value is on record?
Answer: The value was inactive: 2.26%.

Question: Which “growth rescue (activation)” value does the source give for `N#CC(C(=O)Nc1cccc(Cl)c1)=C1Nc2ccccc2N1` here?
Answer: Its value is inactive: 21%.

Question: With `CCN(CC)C(=O)CS(=O)CC(=O)Nc1cc(OCCOC)c(Cl)cc1Cl` (configuration not stated) as the molecule, how does the “growth rescue (activation)” value read?
Answer: The value was inactive: 0.824%.

Question: For `COc1ccc(Cn2c(=O)[nH]c3cc(C(=O)NC4CCN(Cc5ccccc5)CC4)ccc32)cc1`, which “growth rescue (activation)” value is on record?
Answer: Its value is inactive: 8.42%.

Question: With `Cc1nnc(NC(=O)C2CCCN2C(=O)Nc2ccccc2)s1` (configuration not stated) as the molecule, how does the “growth rescue (activation)” value read?
Answer: Its value is inactive: -17.9%.

Question: Which “growth rescue (activation)” value does the source give for `Cc1ccc(C(=O)Nc2ccc(S(=O)(=O)Nc3cnc4ccccc4n3)cc2)cc1` here?
Answer: Its value is inactive: 5.52%.

Question: With `COc1cc2c(cc1NC(=O)c1ccccc1F)CCCC2` as the molecule, how does the “growth rescue (activation)” value read?
Answer: Its value is inactive: -10.1%.

Question: For `CC1(C(=O)Nc2ccc(Cl)c(Cl)c2)CCN1C(=O)Cc1cccc2ccccc12` (configuration not stated), which “growth rescue (activation)” value is on record?
Answer: Its value is inactive: 2.4%.

Question: With `Cc1cc(C)cc(OCc2nnc(SCC(=O)N3CCCCC3)o2)c1` as the molecule, how does the “growth rescue (activation)” value read?
Answer: The value was inactive: 27.1%.

Question: Which “growth rescue (activation)” value does the source give for `CCOC(=O)Cc1c(Cl)c2ccccc2[nH]c1=O` here?
Answer: Its value is inactive: 8.4%.

Question: Which “growth rescue (activation)” value does the source give for `COC(=O)c1cc(COC(=O)c2ccc(OC)c(S(=O)(=O)N3CCCC3)c2)oc1C` here?
Answer: The value was inactive: -25.8%.

Question: With `CN(C)C(=S)NC(=O)C12CC3(C)CC(C)(CC(C)(C3)C1)C2` as the molecule, how does the “growth rescue (activation)” value read?
Answer: The value was inactive: 18.6%.

Question: Which “growth rescue (activation)” value does the source give for `COc1ccc(OCC(=O)NS(=O)(=O)c2ccc(Cl)cc2)cc1` here?
Answer: The value was inactive: 16.6%.

Question: With `COc1ccc(C)cc1N(C(=O)CNC(=O)c1ccco1)C(C(=O)NCC1CCCO1)c1ccccc1` (configuration not stated) as the molecule, how does the “growth rescue (activation)” value read?
Answer: The value was inactive: -8.77%.

Question: Which “growth rescue (activation)” value does the source give for `O=C(/C=C/c1ccc([N+](=O)[O-])cc1)OCC(=O)N1CCCCCC1` here?
Answer: Its value is inactive: 9.9%.

Question: For `CCc1ccc(/C=C(/C#N)C(N)=S)s1`, which “growth rescue (activation)” value is on record?
Answer: Its value is inactive: -6.07%.

Question: For `COc1cccc(-c2nc(N3CCN(c4ccccc4)CC3)c3ccccc3n2)c1O`, which “growth rescue (activation)” value is on record?
Answer: The value was inactive: -3.87%.

Question: Which “growth rescue (activation)” value does the source give for `Cc1ccc(-n2nc3ccc(NC(=O)c4oc5ccc(C)cc5c4C)cc3n2)cc1` here?
Answer: Its value is inactive: 9.23%.

Question: For `COc1cc(NC(=O)COc2ccc(Br)cc2)ccc1NC(=O)C(C)C`, which “growth rescue (activation)” value is on record?
Answer: Its value is inactive: -1.32%.

Question: For `O=C(COc1ccc(/C=N/NC(=O)c2ccncc2)cc1)Nc1ccc([N+](=O)[O-])cc1`, which “growth rescue (activation)” value is on record?
Answer: The value was inactive: -12.3%.

Question: Which “growth rescue (activation)” value does the source give for `CC1=NNC(=O)C1Oc1ccccc1` (configuration not stated) here?
Answer: Its value is inactive: 11.3%.

Question: With `CCCn1cc(CN2CCC(N3CCC(C(=O)N4CCOCC4)CC3)CC2)c(C)n1` as the molecule, how does the “growth rescue (activation)” value read?
Answer: Its value is inactive: 18.4%.

Question: For `COc1ccc(NC(=O)N2CCCC2C(=O)Nc2ccccc2)cc1` (configuration not stated), which “growth rescue (activation)” value is on record?
Answer: Its value is inactive: 27.3%.

Question: For `Nc1cc(N)nc(SCc2nnnn2-c2ccc(Cl)cc2)n1`, which “growth rescue (activation)” value is on record?
Answer: The value was inactive: -12%.

Question: Which “growth rescue (activation)” value does the source give for `CCCCCCOC(=O)Cc1c(C)nc(-c2ccccc2)[nH]c1=O` here?
Answer: The value was inactive: 36.3%.

Question: For `Cc1cc(N2C(=O)C(O)=C(C(=O)c3ccco3)C2c2cccc(Oc3ccccc3)c2)no1` (configuration not stated), which “growth rescue (activation)” value is on record?
Answer: Its value is inactive: -15.9%.

Question: With `O=C(C1=C(O)C(=O)N(CCN2CCOCC2)C1c1cccc([N+](=O)[O-])c1)c1cccs1` (configuration not stated) as the molecule, how does the “growth rescue (activation)” value read?
Answer: Its value is inactive: 8.63%.

Question: Which “growth rescue (activation)” value does the source give for `Cc1ccc2[nH]cc(S(=O)(=O)c3ccc(F)cc3)c(=O)c2c1` here?
Answer: Its value is inactive: -4.95%.
